# From PubChem BioAssay AID1345083 (National Center for Advancing Translational Sciences (NCATS), 2018)
# The campaign covered roughly 94,000 compounds. About 6,200 (6.6%) were called active. The shares of active, inactive and inconclusive entries below differ from those in the screen. The call rests on the fitted dose curve; in most records, active means well fitted inhibition curve with a large enough effect; inconclusive means small, poorly fitted or top-dose-only effect; inactive means flat fitted curve, though single readings scatter. Potencies beside an inconclusive call are fits to weak or partial responses and may not hold up.
# Assay: Cytotoxic Profiling in HEK 293 Cell Line of Diverse Libraries Using Quantitative High-Throughput Screening; further: nearly all actives have a fitted effect of over 60% in size
# Conditions: HEK 293 viability, ATP luminescence (CellTiter-Glo), 48-72 h; activity change, negative = cytotoxicity: at 115 µM (top of the series) unless noted; series mostly up to 115 µM
# Outline: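 HEK 293 cells at 250 cells/well were exposed to compounds by pintool transfer for 48 or 72 hr at 37 degree Celsius, 5% CO2. Viability was read as ATP-coupled luminescence with CellTiter-Glo after 10 min at room temperature.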
# On the % scale 0 is the no-effect control and ±100 the full control effect; potency means the concentration at half of the fitted maximal effect; tags describe the fitted curve by direction and shape.
SMILES,Potency,outcome,"activity change, negative = cytotoxicity"
COc1ccc(C)cc1NC(=O)Cn1cccc1-c1nc(-c2ccc3c(c2)OCO3)no1,"inconclusive: 56.2 µM [inhibitor, partial curve, poor fit]",,
Cc1ccccc1N1CCN(C(=O)c2cc3n(n2)CC(c2ccc(Cl)cc2)OC3)CC1 (centres undefined),"inconclusive: 70.8 µM [inhibitor, partial curve, poor fit]",,
COc1ccc(N2CC(c3noc(-c4ccc(F)cc4)n3)CC2=O)cc1OC (centres undefined),"inconclusive: 79.4 µM [inhibitor, single point]",,
O=C(NCCCc1ccccc1)c1ccc2nc(-c3ccncc3)oc2c1,"inconclusive: 79.4 µM [inhibitor, partial curve]",,
CC(C)(C)c1cc(C[C@@H]2CC[C@H](O)[C@@H](CN(CC3CC3)CC3CC3)O2)no1,"inconclusive: 126 µM [inhibitor, single point]",,
COCC(=O)N1c2ccccc2CC1c1noc(C(C)C)n1 (centres undefined),,inactive,
COc1cc(CNC(=O)c2ccc3c(c2)N(C(=O)c2ccc(F)cc2)CC3)cc(OC)c1,"inconclusive: 22.4 µM [inhibitor, partial curve, poor fit]",,
COc1ccc(C(=O)N2CCC3(CC2)NC(=O)N(c2cccc(F)c2)N3)cc1F,"inconclusive: 28.2 µM [inhibitor, full curve]",,
Cc1ccc(C(=O)N2CCC3(CC2)CC(N(Cc2ccccc2)C2CC2)CCO3)cc1 (centres undefined),"inconclusive: 56.2 µM [inhibitor, partial curve, poor fit]",,
O=C1C2CN(Cc3cccc(Cl)c3)CCC2OCCN1Cc1ccccc1F (centres undefined),"inconclusive: 89.1 µM [inhibitor, partial curve]",,
CNCCN1C(=O)CC[C@H]2CN(c3ncc(Cl)cc3F)CC[C@H]21,"inconclusive: 79.4 µM [inhibitor, partial curve, poor fit]",,
COc1ccc(C(=O)N2CCCC3(CN[S+](=O)([O-])c4cccnc4N3)C2)cc1 (centres undefined),,,inactive: 1.08%
O=C([C@@H]1C[C@H](Oc2ccccc2)CN1C(=O)CC1CCCC1)N1CCCC1,,inactive,
COc1ccc(-c2cc3c(=O)n(CCNC(=O)c4cccc5[nH]ccc45)ccn3n2)cc1,active: 31.6 µM,,
O=C(c1cccc2[nH]ccc12)N1CCC(n2cc(-c3nc(-c4ccccc4)no3)nn2)CC1,active: 28.2 µM,,
CCn1ccnc1CN(C)Cc1cn(-c2ccccc2C)nc1-c1ccc(OC)c(F)c1,"inconclusive: 25.1 µM [inhibitor, full curve, poor fit]",,
O=C(CCC[C@@H]1[C@H]2CCCN3CCC[C@@H](CN1C(=O)CCc1ccccc1)[C@@H]23)N1CCOCC1,,,inactive: 2.16%
CN1c2cc(C(=O)Nc3ccc(N4CCOCC4)cc3)ccc2C(=O)N2CCCCC21 (centres undefined),"inconclusive: 56.2 µM [inhibitor, partial curve, poor fit]",,
COc1cccc(CN2CCC(N3C(=O)C4(CCCCC4)C3c3ccncc3)CC2)c1OC (centres undefined),"inconclusive: 89.1 µM [inhibitor, partial curve, poor fit]",,
Cc1noc(CN(C)C(=O)C2C3C(=O)N(Cc4ccc(C)c(C)c4)C[C@@]34C=C[C@@H]2O4)n1 (some centres undefined),,inactive,
Cc1cc(=O)n(CC(=O)Nc2ccccc2C)c(N2CCC(C)CC2)n1,"inconclusive: 79.4 µM [inhibitor, single point]",,
Cc1nc(-c2ccc(F)cc2)n(Cc2ccc(F)cc2F)c(=O)c1CCO,"inconclusive: 50.1 µM [inhibitor, partial curve, poor fit]",,

SMILES,Potency,outcome,"activity change, negative = cytotoxicity"
Cn1nc(C(=O)N2CCC3(CC2)CC(OCC2CC2)CCO3)c2ccccc21 (centres undefined),"inconclusive: 50.1 µM [inhibitor, partial curve, poor fit]",,
COCCC(=O)N1CCCn2cc(-c3cccc(C#N)c3)nc21,"inconclusive: 89.1 µM [inhibitor, single point]",,
COC(=O)NC1CCN(c2nccc(Nc3ccccc3F)n2)CC1,"inconclusive: 89.1 µM [inhibitor, partial curve, poor fit]",,
COc1ccc(CNC(=O)CC[C@]23CC[C@](C)(O)C[C@H]2C(C)(C)C[C@@H]3NC2CCOCC2)cc1,"inconclusive: 89.1 µM [inhibitor, single point]",,
O=C(c1cnccn1)N1CCC2(CC1)CCC(O)(CN1CCc3ccccc31)CC2,"inconclusive: 50.1 µM [inhibitor, partial curve, poor fit]",,
OCC1CN(C2CCC2)CC12CCN(Cc1ccc(Br)o1)CC2 (centres undefined),"inconclusive: 56.2 µM [inhibitor, partial curve, poor fit]",,
CCCCC1CN(c2cccc(-c3ccccc3)c2)C(=O)CN1C(=O)c1ncoc1C (centres undefined),"inconclusive: 44.7 µM [inhibitor, partial curve, poor fit]",,
CC1(C)[C@H]2CC[C@@H](CNC(=O)c3cccnc3)[C@@H]1C2,,,inactive: -31.7% [at 172 µM]
O=C(NC1CCCC1)N1CCN(c2nccc(Nc3ccccc3F)n2)CC1,active: 44.7 µM,,
CCOc1cc(=O)n2c(c1C(=O)Nc1ccc(OC)c(OC)c1)CCCC2,,,inactive: 3.6%
Cc1ccc(C(=O)N2CCC(N3C(=O)c4c(c(C)nn4-c4ccccc4)C3C(C)C)CC2)cc1 (centres undefined),"inconclusive: 50.1 µM [inhibitor, partial curve, poor fit]",,
O=C(Cc1cccc(F)c1)N1CC(Oc2ccc(-c3nc(-c4ccccc4)no3)cc2)C1,"inconclusive: 10 µM [inhibitor, full curve]",,
Cc1cc(C(F)(F)F)n2ncc(C(=O)N3C[C@@H](C)[C@](O)(C4CCC4)C3)c2n1,,,inactive: -29.1%
COc1cc(CNCC2CCOCC2)ccc1OCC(O)CN(C)C1CCCCC1 (centres undefined),"inconclusive: 89.1 µM [inhibitor, single point]",,
COC(=O)CNC(=O)c1ccc2oc(-c3ccncc3)nc2c1,,,inactive: -17.8% [at 172 µM]
C[S+](=O)([O-])N1Cc2ccccc2CC2(CCN(Cc3cccnc3)C2)C1 (centres undefined),,,inactive: -12.5%
CS(=O)(=O)N1CCCN(c2cc(C3CC(O)C3)nc(N)n2)CC1 (centres undefined),,inactive,
COc1ncccc1-c1nc(-c2c(C)noc2C)cc2c1cc(C)n2CCN(C)C,"inconclusive: 112 µM [inhibitor, single point]",,
COC(=O)[C@H](Cc1ccc(OC)cc1)NC(=O)[C@H]1CN(C(=O)c2ccc(N(C)C)cc2)CCN1C(=O)c1cccs1,"inconclusive: 89.1 µM [inhibitor, single point]",,
CC1(C(=O)NCc2cnccn2)CCc2cnc(NCc3ccccc3)nc21 (centres undefined),,,inactive: -3.71% [at 172 µM]
O=[S+]([O-])(NC1CCN(c2nccc(Nc3ccccc3F)n2)CC1)c1ccccc1,"inconclusive: 35.5 µM [inhibitor, partial curve, poor fit]",,
O=C(Cn1nc2n(c1=O)CCCCC2)Nc1cccc(F)c1,,,inactive: -0.664%

SMILES,Potency,outcome,"activity change, negative = cytotoxicity"
O=C(NCc1ccccc1)N1CCC(N2C(=O)C3(CCCC3)C2c2ccccc2)CC1 (centres undefined),"inconclusive: 56.2 µM [inhibitor, partial curve, poor fit]",,
O=C1OC2(CN(c3ccc4c(c3)OCO4)C2)CN1c1ccccc1,"inconclusive: 89.1 µM [inhibitor, partial curve]",,
Cc1c[nH]c(C(=O)N2CCCC(CCc3cccc(C(F)(F)F)c3)C2)c1 (centres undefined),"inconclusive: 50.1 µM [inhibitor, partial curve, poor fit]",,
C[S+](=O)([O-])CCn1ncc2cc(OCc3cccc(-c4ccccc4F)c3)ccc21,active: 50.1 µM,,
COc1ccc(-c2noc([C@@H]3C[C@H](NCc4ccc(F)cc4)CN3C)n2)cc1,active: 100 µM,,
CN(C)C(=O)c1cccnc1OC1CCN(C(=O)c2ccc(F)cc2)C1 (centres undefined),,,inactive: 3.33%
CN(C)c1ccc(-c2noc([C@@H]3CCCN3Cc3cnc4ccccc4c3)n2)cn1,"inconclusive: 56.2 µM [inhibitor, partial curve, poor fit]",,
CCOc1cccc(CNC(=O)CCC2CCCN(S(=O)(=O)c3ccc(C)cc3)C2)c1 (centres undefined),"inconclusive: 50.1 µM [inhibitor, partial curve, poor fit]",,
Cc1ccccc1NC(=O)c1cnc2c(c1)N(C(=O)CCc1ccccc1)CCC2,active: 100 µM,,
COc1ccc(CCNC(=O)C2CCCN(c3nccc(Nc4ccccc4F)n3)C2)cc1 (centres undefined),"inconclusive: 25.1 µM [inhibitor, partial curve, poor fit]",,
CNC(=O)[C@H]1C[C@H](Oc2ccccc2)CN1Cc1c[nH]c2ccc(OC)cc12,"inconclusive: 89.1 µM [inhibitor, single point]",,
CC1(NC(=O)C2CC2)CN(Cc2nc(-c3ccc(Oc4ccccc4)cc3)cs2)C1,active: 35.5 µM,,
CC(C)Cn1nc2n(c1=O)CCN(S(=O)(=O)c1ccc(C(C)(C)C)cc1)CC2,"inconclusive: 56.2 µM [inhibitor, partial curve, poor fit]",,
COc1cc(Cl)ccc1C(=O)N[C@@H]1CN(S(C)(=O)=O)C[C@H]1CN(C)C,,inactive,
O=C(NCC(F)F)c1ccc2nnc(C3CCOCC3)n2c1,,,inactive: -5.04% [at 172 µM]
Cn1ccc(C(=O)N2CCCC(CCc3ccccc3C(F)(F)F)C2)n1 (centres undefined),active: 31.6 µM,,
COc1ccc(-c2nnc3n2CCN(C(=O)c2cccc(OC)c2)C3)cc1,,,inactive: -1.3%
COc1ccc(C2Cn3nnc(C(=O)Nc4cc(C)ccc4F)c3CO2)cc1 (centres undefined),"inconclusive: 44.7 µM [inhibitor, partial curve, poor fit]",,
COc1ccccc1C(=O)Nc1cc(C2CC2)nn1-c1ccccc1,"inconclusive: 35.5 µM [inhibitor, partial curve, poor fit]",,
O=C1CCN(S(=O)(=O)c2ccccc2)CCCN(S(=O)(=O)c2cccs2)CCN1,,,inactive: -1.5%
